# Active and inactive are the calls of the source. Unless noted, calls follow the shape of the dose curve; as a rule, active = well fitted curve in the direction sought with a large enough effect in the repeat runs; inconclusive = weak or mixed curves; inactive = no such curve, though single readings can be large; an effect the other way counts as inactive or inconclusive.
# Assays:
# [1] = qHTS assay for identifying genotoxic compounds that show differential cytotoxicity against isogenic chicken DT40 cell lines with known DNA damage response pathways - Rad54/Ku70 mutant cell line (AID 743015); conditions: DT40 Rad54/Ku70 mutant viability, CellTiter-Glo, 40 h; activity change, negative = cytotoxicity: at 66.8 µM (top of the series); also: nearly all actives have a fitted effect of over 60% in size; also: potency is read from the fitted curve at half-maximal effect; as to activity change, negative = cytotoxicity: % is scaled to controls: 0 for no effect and ±100 for the full control effect
# [2] = qHTS assay to identify small molecule antagonists of the androgen receptor (AR) signaling pathway - cell viability counter screen (AID 743033; also: nearly all actives have a fitted effect of over 45% in size; also: potency is read from the fitted curve at half-maximal effect; as to activity change, negative = cytotoxicity: % is scaled to controls: 0 for no effect and ±100 for the full control effect); conditions: AR-bla HEK293 viability, CellTiter-Glo luminescence, 16 h
# [3] = qHTS assay to identify small molecule antagonists of the androgen receptor (AR) signaling pathway using the MDA cell line - cell viability counter screen (AID 743041; also: nearly all actives have a fitted effect of over 45% in size; also: potency is read from the fitted curve at half-maximal effect; as to viability change, negative = cytotoxic: % is scaled to controls: 0 for no effect and ±100 for the full control effect); conditions: MDA-kb2 viability, CellTiter-Fluor, 16 h, cells co-treated with R1881 androgen agonist; viability change, negative = cytotoxic: at 70.3 µM (top of the series) unless noted
# How it was run: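 Cytotoxicity counter screen: MDA-kb2 AR-luc cells, compound + R1881, 16 h, 37C, 0% CO2; CellTiter-Fluor added at 15.5 h, fluorescence read after 30 min.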
# [4] = qHTS assay to identify small molecule antagonists of the thyroid receptor (TR) signaling pathway - cell viability counter screen (AID 743064); conditions: GH3.TRE-Luc viability, CellTiter-Fluor, 24 h; activity change, negative = cytotoxic: at 70.3 µM (top of the series) unless noted; also: nearly all actives have a fitted effect of over 50% in size; also: potency is read from the fitted curve at half-maximal effect
# How it was run: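 CellTiter-Fluor readout, 30 min at 37 °C/5% CO2, following 23.5 h incubation of GH3.TRE-Luc cells with test compound and 1 nM T3 (final).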
# [5] = target: Estrogen receptor (Homo sapiens) (UniProt P03372); assay: qHTS assay to identify small molecule antagonists of the estrogen receptor alpha (ER-alpha) signaling pathway (AID 743069; active = well fitted curve in the direction sought with a large enough effect in the signal ratio in the repeat runs, not every such curve was filed as active; inconclusive = weak or mixed curves, or effect the other way; inactive = no such curve, though single readings can be large or run the other way; the % refers to the signal ratio; also: potency is read from the fitted curve at half-maximal effect; as to activity, negative = inhibition: % is scaled to controls: 0 for no effect and ±100 for the full control effect); conditions: HEK293 ER-alpha-UAS-bla, beta-lactamase ratio, antagonist mode; activity, negative = inhibition: at 69.4 µM (top of the series) unless noted
# How it was run: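 Beta-lactamase FRET fluorescence is read after 2 hr at room temperature with LiveBLAzer B/G substrate. Before that, ER-alpha-bla HEK293 cells sit 4 hr after plating, then receive compound plus 17beta-estradiol and incubate 18 hr at 37C.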
# [6] = qHTS assay to identify small molecule antagonists of the estrogen receptor alpha (ER-alpha) signaling pathway - cell viability counter screen (AID 743074; calls by dose curve;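 also: HEK293 cells carrying ER-alpha-UAS-bla reporter stimulated with 17beta-estradiol; nearly all actives have a fitted effect of over 45% in size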; also: potency is read from the fitted curve at half-maximal effect)
# [7] = target: Estrogen receptor (Homo sapiens) (UniProt P03372); assay: qHTS assay to identify small molecule agonists of the estrogen receptor alpha (ER-alpha) signaling pathway using the BG1 cell line (AID 743079); conditions: BG1Luc4E2 cells, ERE-luciferase agonist, 22 h; activation: at 70.3 µM (top of the series) unless noted; also: nearly all actives have a fitted effect of over 20% in size; also: potency is read from the fitted curve at half-maximal effect
# [8] = qHTS assay for identifying genotoxic compounds that show differential cytotoxicity against isogenic chicken DT40 cell lines with known DNA damage response pathways - Rev3 mutant cell line (AID 743014); conditions: chicken DT40 Rev3-/- viability, CellTiter-Glo, 40 h; activity, negative = cytotoxicity: at 68.4 µM (top of the series); also: nearly all actives have a fitted effect of over 55% in size; also: potency is read from the fitted curve at half-maximal effect
# Aromatase (Homo sapiens) = Aromatase (Homo sapiens) (UniProt P11511); assay: qHTS assay to identify aromatase inhibitors (AID 743083); conditions: MCF-7 aro ERE, testosterone-driven ERE luciferase, 24 h; activity, negative = inhibition: at 70.3 µM (top of the series); also: nearly all actives have a fitted effect of over 55% in size; also: potency is read from the fitted curve at half-maximal effect
# [9] = target: Androgen receptor (Homo sapiens) (UniProt P10275); assay: qHTS assay to identify small molecule antagonists of the androgen receptor (AR) signaling pathway (AID 743035; active = well fitted inhibition curve with a large enough effect in the signal ratio in the repeat runs, not every such curve was filed as active; inconclusive = weak or mixed curves, or effect the other way; inactive = no such curve, though single readings can be large or run the other way; the % refers to the signal ratio; also: potency is read from the fitted curve at half-maximal effect); conditions: HEK293 AR-UAS-bla, R1881-stimulated, beta-lactamase FRET, 16 h; activity change, negative = inhibition: at 58.5 µM (top of the series) unless noted
# How it was run: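 Steps: seed AR-UAS-bla GripTite HEK293 cells, incubate 4 h at 37C; pin in test compound, then add agonist R1881; incubate 16 h at 37C; add LiveBLAzer B/G FRET substrate, 2 h at room temperature; read fluorescence.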
# [10] = target: Androgen receptor (Homo sapiens) (UniProt P10275); assay: qHTS assay to identify small molecule agonists of the androgen receptor (AR) signaling pathway (AID 743036; active = well fitted activation curve with a large enough effect in the signal ratio in the repeat runs, with a control signal flat, not every such curve was filed as active; inconclusive = weak or mixed curves, or effect the other way; inactive = no such curve, though single readings can be large or run the other way; the % refers to the signal ratio; also: potency is read from the fitted curve at half-maximal effect); conditions: HEK293 AR-UAS-bla GripTite, beta-lactamase FRET ratio, 16 h; activation: at 62.4 µM (top of the series) unless noted
# How it was run: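 Following a 4 h settling period, AR-UAS-bla HEK293 cells were dosed with compounds for 16 h at 37C. A 2 h room-temperature incubation with LiveBLAzer B/G FRET substrate preceded the fluorescence measurement.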
# [11] = qHTS assay to identify small molecule antagonists of the estrogen receptor alpha (ER-alpha) signaling pathway using the BG1 cell line (AID 743080; calls by dose curve;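 also: BG1 cells stimulated with 17beta-estradiol alongside compound; potency is read from the fitted curve at half-maximal effect; nearly all actives have a fitted effect of over 25% in size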); conditions: BG1Luc4E2 ERE-luciferase antagonist mode, luminescence; activity change, negative = inhibition: at 70.3 µM (top of the series) unless noted
# How it was run: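 Luciferase inhibition measured with ONE-Glo after 30 min at RT in BG1Luc4E2 cells given test compounds and 17beta-estradiol for 21.5 h at 37 C; CellTiter-Fluor viability read in the same wells beforehand.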
# [12] = target: Estrogen receptor (Homo sapiens) (UniProt P03372); assay: qHTS assay to identify small molecule agonists of the estrogen receptor alpha (ER-alpha) signaling pathway (AID 743075; calls by dose curve;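 also: HEK293 GripTite cells with ER-alpha and UAS-driven beta-lactamase reporter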; also: potency is read from the fitted curve at half-maximal effect)
# [13] = qHTS assay to identify small molecule antagonists of the estrogen receptor alpha (ER-alpha) signaling pathway using the BG1 cell line - cell viability counter screen (AID 743081); conditions: BG1Luc4E2 viability, CellTiter-Fluor, 22 h; activity change, negative = cytotoxicity: at 70.3 µM (top of the series) unless noted;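 also: compound given together with 17beta-estradiol as the ER stimulus; % is scaled to controls: 0 for no effect and ±100 for the full control effect; nearly all actives have a fitted effect of over 45% in size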
# [14] = qHTS assay to identify small molecule antagonists of the thyroid receptor (TR) signaling pathway (AID 743065); also: potency is read from the fitted curve at half-maximal effect; nearly all actives have a fitted effect of over 55% in size
# How it was run: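 GH3.TRE-Luc rat pituitary cells (two TREs driving luciferase) were dosed with compound, then stimulated with 1 nM T3 (final) for 23.5 h at 37 C. ONE-Glo luminescence was the read-out, with CellTiter-Fluor fluorescence as the cytotoxicity counter-screen.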
# [15] = activity change, negative = cytotoxicity: at 58.5 µM (top of the series) unless noted
# Tags tell the direction and shape of the fitted curve or compound fluorescence and quenching.
# Chain of UniProt P10275 (P10275 whole entry, looked up): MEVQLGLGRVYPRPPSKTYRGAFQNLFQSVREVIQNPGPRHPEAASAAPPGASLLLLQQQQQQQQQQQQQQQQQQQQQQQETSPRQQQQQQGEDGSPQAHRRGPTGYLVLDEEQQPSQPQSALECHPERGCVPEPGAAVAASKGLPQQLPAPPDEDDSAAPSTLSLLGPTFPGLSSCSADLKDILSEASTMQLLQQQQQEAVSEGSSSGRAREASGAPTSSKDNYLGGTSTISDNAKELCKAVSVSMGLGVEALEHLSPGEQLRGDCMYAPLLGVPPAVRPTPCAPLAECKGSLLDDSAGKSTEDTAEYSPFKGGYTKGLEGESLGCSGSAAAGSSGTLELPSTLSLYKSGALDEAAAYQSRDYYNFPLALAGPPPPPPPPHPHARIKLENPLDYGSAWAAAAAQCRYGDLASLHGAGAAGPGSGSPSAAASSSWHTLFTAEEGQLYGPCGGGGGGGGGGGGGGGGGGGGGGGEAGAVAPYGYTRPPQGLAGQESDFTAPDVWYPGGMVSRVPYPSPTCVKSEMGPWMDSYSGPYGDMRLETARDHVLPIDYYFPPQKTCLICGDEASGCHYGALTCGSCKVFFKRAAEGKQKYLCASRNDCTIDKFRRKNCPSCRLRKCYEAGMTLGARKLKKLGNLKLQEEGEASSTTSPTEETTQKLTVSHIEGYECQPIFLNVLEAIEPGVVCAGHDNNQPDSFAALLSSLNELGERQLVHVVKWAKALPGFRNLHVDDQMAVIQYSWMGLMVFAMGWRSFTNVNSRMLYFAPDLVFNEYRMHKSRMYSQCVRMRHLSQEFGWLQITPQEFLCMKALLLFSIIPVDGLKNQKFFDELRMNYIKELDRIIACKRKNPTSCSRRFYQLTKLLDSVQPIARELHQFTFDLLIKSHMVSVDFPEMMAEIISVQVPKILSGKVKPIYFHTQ
# Chain of UniProt P11511 (P11511 whole entry, looked up): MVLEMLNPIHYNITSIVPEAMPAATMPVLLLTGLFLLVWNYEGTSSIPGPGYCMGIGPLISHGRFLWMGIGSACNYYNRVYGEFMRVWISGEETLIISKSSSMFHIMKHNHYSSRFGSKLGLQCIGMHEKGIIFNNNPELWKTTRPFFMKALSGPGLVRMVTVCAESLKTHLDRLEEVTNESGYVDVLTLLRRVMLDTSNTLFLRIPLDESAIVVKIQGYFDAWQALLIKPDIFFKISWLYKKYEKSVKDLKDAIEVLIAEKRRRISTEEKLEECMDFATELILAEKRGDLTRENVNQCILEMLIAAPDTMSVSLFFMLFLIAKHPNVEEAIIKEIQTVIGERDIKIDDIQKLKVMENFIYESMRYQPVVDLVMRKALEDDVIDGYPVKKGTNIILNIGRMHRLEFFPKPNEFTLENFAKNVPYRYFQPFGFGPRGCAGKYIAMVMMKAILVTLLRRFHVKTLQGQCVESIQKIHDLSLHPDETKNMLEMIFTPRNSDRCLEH
# Chain of UniProt P03372 (P03372 whole entry, looked up): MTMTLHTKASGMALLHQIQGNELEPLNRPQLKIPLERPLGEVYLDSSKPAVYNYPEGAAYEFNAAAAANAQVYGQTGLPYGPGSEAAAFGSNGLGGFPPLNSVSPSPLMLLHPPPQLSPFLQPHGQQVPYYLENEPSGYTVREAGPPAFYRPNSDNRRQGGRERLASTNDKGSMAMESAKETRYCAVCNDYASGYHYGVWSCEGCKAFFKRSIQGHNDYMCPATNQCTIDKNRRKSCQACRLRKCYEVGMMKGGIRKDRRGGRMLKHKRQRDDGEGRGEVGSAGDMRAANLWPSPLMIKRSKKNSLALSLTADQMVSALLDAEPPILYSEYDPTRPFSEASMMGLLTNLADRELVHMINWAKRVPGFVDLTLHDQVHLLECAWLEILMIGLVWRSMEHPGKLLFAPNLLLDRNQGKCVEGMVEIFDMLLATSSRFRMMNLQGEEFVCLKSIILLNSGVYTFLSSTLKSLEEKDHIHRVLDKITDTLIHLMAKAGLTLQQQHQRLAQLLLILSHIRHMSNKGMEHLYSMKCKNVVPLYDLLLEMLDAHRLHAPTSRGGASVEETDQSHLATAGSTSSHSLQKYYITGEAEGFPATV
smiles,measurement,setting,value
CC(=O)c1c(C)cc(C(C)(C)C)cc1C,Potency,[1],"inconclusive: 27.3 µM [cytotoxic, partial curve, poor fit]"
CO[Si](CCCNc1ccccc1)(OC)OC,Potency,[1],active: 8.63 µM
CC1(C)NC(=O)NC1=O,Potency,[1],inactive
same,"activity change, negative = cytotoxicity",[2]; [15],inconclusive: -37.6% [cytotoxic] [at 78.9 µM]
same,"activity change, negative = cytotoxicity",[2]; at 78.9 µM (top of the series),inactive: 2.44%
same,Potency,[3],inactive
same,Potency,[4],"inconclusive: 2.75 µM [rising, single point]"
same,Potency,[5],inactive
same,Potency,[6],"inconclusive: 63.8 µM [cytotoxic, single point]"
same,Potency,[7],inactive
N#CCCOCCOCCC#N,Potency,[8],active: 61.1 µM
same,Potency,Aromatase (Homo sapiens),inactive
O=C(O)C1(C(=O)Nc2ccc(Cl)cc2Cl)CC1,Potency,[1],"inconclusive: 68.6 µM [cytotoxic, single point]"
same,Potency,[2]; [15],"inconclusive: 21.9 µM [cytotoxic, partial curve, poor fit]"
same,Potency,[9],"inconclusive: 24.5 µM [rising, partial curve]"
same,Potency,[10],inconclusive: 2.45 µM [full curve]
same,Potency,[5],"inconclusive: 24.5 µM [rising, partial curve]"
same,Potency,[6],"inconclusive: 24.5 µM [cytotoxic, single point]"
same,Potency,[7],inactive
same,Potency,[11],"inconclusive: 15.4 µM [rising, partial curve, poor fit]"
CCC(=O)OC/C=C/c1ccccc1,Potency,[8],inactive
same,Potency,[7],active: 68.6 µM
Cc1c(NC(C)C)c(=O)n(-c2ccccc2)n1C,Potency,[8],"inconclusive: 26.6 µM [rising, partial curve, poor fit]"
same,Potency,[6],"inconclusive: 13.4 µM [rising, single point]"
O=Cc1ccc(F)c(Br)c1,Potency,[1],"inconclusive: 7.7 µM [cytotoxic, partial curve, poor fit]"
CC(=O)Nc1ccc(CC(=O)O)cc1,"activity, negative = cytotoxicity",[8],inconclusive: -30.2% [cytotoxic]
same,Potency,[5],inactive
same,Potency,[12],inactive
same,Potency,[7],"inconclusive: 54.5 µM [activator, partial curve]"
CC(C)(C)NSc1nc2ccccc2s1,Potency,[1],inactive
same,Potency,[2]; [15],"inconclusive: 55.9 µM [cytotoxic, single point]"
same,Potency,[9],active: 55.9 µM
same,Potency,[10],"inconclusive: 55.9 µM [activator, single point]"
same,Potency,Aromatase (Homo sapiens),"inconclusive: 44 µM [inhibitor, partial curve, poor fit]"
CC(C)CCCCCCOC(=O)C1CCCCC1C(=O)OCCCCCCC(C)C (stereo not given),Potency,[8],"inconclusive: 17.2 µM [cytotoxic, partial curve, poor fit]"
same,"activity, negative = inhibition",[5],inconclusive: -22.9%
CC1=NN(c2ccc(S(=O)(=O)O)cc2)C(=O)C1,Potency,[8],inactive
same,Potency,[6],inactive
O=[N+]([O-])c1ccccc1CCO,Potency,[1],inactive
COC1CCC=CO1 (stereo not given),Potency,[8],"inconclusive: 54.9 µM [cytotoxic, partial curve, poor fit]"
same,Potency,[12],inconclusive: 0.156 µM [partial curve]
O=C1CCCN1C1CCCCC1,Potency,[8],inactive
same,Potency,[7],inactive
Nc1ccc(S(=O)(=O)NC(=O)c2ccccc2)cc1,Potency,[8],"inconclusive: 12.7 µM [rising, partial curve, poor fit]"
same,Potency,[13],inactive
O=CC=C(c1ccccc1)c1ccccc1,Potency,[1],active: 17.4 µM
same,Potency,[2]; [15],active: 22.1 µM
same,Potency,[3],"inconclusive: 54.9 µM [cytotoxic, partial curve, poor fit]"
same,Potency,[14],active: 13.8 µM
same,Potency,[5],active: 27.8 µM [inconclusive]
same,Potency,[6],"inconclusive: 6.22 µM [cytotoxic, partial curve, poor fit]"
same,Potency,[11],active: 69.1 µM
same,Potency,Aromatase (Homo sapiens),inconclusive: 61.6 µM [inhibitor]
CC(=O)O[C@@H]1C(=O)O[C@@H]2[C@H]1OC(=O)[C@@H]2OC(C)=O,Potency,[8],"inconclusive: 33.5 µM [cytotoxic, single point]"
same,Potency,[12],inactive
same,activation,[7],inconclusive: 17% [phenotype inactive]
CCOC(=O)C(C#N)=C(c1ccccc1)c1ccccc1,Potency,[1],"inconclusive: 33.5 µM [cytotoxic, single point]"
Cc1ccc2oc(CN(Cc3ccccc3)C(=O)Nc3c(F)cc(F)cc3F)c(-c3ccc(Cl)cc3)c2c1,Potency,[1],active: 14.9 µM
same,Potency,[2]; [15],"inconclusive: 0.0597 µM [cytotoxic, full curve, poor fit]"
same,Potency,[4],inactive
same,Potency,[14],"inconclusive: 2.65 µM [inhibitor, full curve]"
same,Potency,[6],inactive
same,Potency,Aromatase (Homo sapiens),"inconclusive: 33.3 µM [inhibitor, partial curve, poor fit]"
C[Si]1(C)O[Si](C)(C)O[Si](C)(C)O1,Potency,[8],inactive
same,Potency,[6],"inconclusive: 30.9 µM [rising, partial curve, poor fit]"

# From PubChem BioAssay (Tox21)
